In PubChem BioAssay AID1240 (Sanford-Burnham Center for Chemical Genomics, 2008):
The campaign covered roughly 50,000 compounds. About 800 (1.6%) showed an effect of 50% or more. This is one part of the list.

What follows are compounds tested against Bcl-2-like protein 10 (Homo sapiens) (UniProt Q9HD36) (assay: Phenotype converters, Bcl-B/TR3 peptide binding displacement, primary biochemical FP (AID 1240;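 further: 0% = Bcl-B with tracer peptide and DMSO and 100% = tracer peptide lacking Bcl-B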)). Conditions: GST-Bcl-B / FITC-TR3 peptide fluorescence polarization; stronger effect = higher value; compound at 3.75 mg/L.
Chain of UniProt Q9HD36 (Q9HD36 whole entry, looked up): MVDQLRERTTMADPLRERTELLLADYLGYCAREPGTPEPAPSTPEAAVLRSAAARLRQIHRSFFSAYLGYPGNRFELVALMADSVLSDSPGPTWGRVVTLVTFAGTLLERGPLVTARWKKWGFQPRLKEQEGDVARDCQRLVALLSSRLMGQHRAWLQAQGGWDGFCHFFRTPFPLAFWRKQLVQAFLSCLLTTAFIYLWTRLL
`COc1ccc(C(=O)Nc2ccc([N+](=O)[O-])cn2)cc1` gave a displacement of 0.3%.
`O=C(/C=C/c1ccc(-c2ccccc2[N+](=O)[O-])o1)c1ccc(F)cc1` gave a displacement of 16.8%.
In the case of `O=C(NN1C(=O)CSC1=S)c1ccccc1Cl`, the displacement is reported as -9.7%.
With `COC(=O)CCN1C(=O)/C(=C\C=C\c2ccccc2)SC1=S` the displacement was -150%.
Work on `CCC(CC)C(=O)N1CCN(c2cccc(Cl)c2)CC1` yielded a displacement of 9.4%.
Work on `CC1=C(C#N)c2nc(N)c(C#N)c(C)c2/C1=C\c1ccc(C)o1` yielded a displacement of -4.4%.
`Cc1cc(C)nc(NC(N)=NC(C)(C)C)n1` was tested, and the displacement was 8.3%.
`COc1ccc(/C=N/OCC(=O)N2CCN(C(c3ccccc3)c3ccccc3)CC2)cc1OC` was tested, and the displacement was 0%.
With `CCOC(=O)c1c(-c2ccccc2)oc2ccc(OCC(=O)c3ccc(OC)cc3)cc12` the displacement was 13.1%.
In the case of `CC(=O)N1CCN(CC(C)(C)NS(=O)(=O)c2ccc(Cl)cc2)CC1`, the displacement is reported as 0.7%.
`COC(C(=O)NNC(=O)c1cccc(Cl)c1)c1ccccc1` (stereo not given) was tested, and the displacement was -5.9%.
Compound `Cc1c(C(=O)O/N=C(\N)c2ccc(Cl)cc2)cccc1[N+](=O)[O-]` has a displacement of 2.7%.
In the case of `O=C1NCC(COc2ccc([N+](=O)[O-])cc2)O1` (stereo not given), the displacement is reported as 8.7%.
`CC1CN(C(=O)C2(C)CCCCC2)c2ccccc21` (stereo not given) gave a displacement of 6.6%.
With `COc1ccc(Cc2noc(-c3ccccc3C)n2)cc1` the displacement was -6.7%.
With `O=c1n(Cc2ccc(Cl)cc2)c2cc([N+](=O)[O-])c([N+](=O)[O-])cc2n1Cc1ccc(Cl)cc1` the displacement was 5.7%.
`CS(=O)(=O)N1CCN(c2ccc([N+](=O)[O-])c3ncccc23)CC1` showed a displacement of -8%.
In the case of `CC1=NN(c2ccc(C)c(Cl)c2)C(=O)C1`, the displacement is reported as 10.8%.
Compound `CCNC(=S)NNC(=O)CSc1nc2ccccc2n1Cc1ccccc1` has a displacement of -29.3%.
`O=C(NCCCCCCNC(=O)c1ccc(CN2CCOCC2)cc1)c1ccc(CN2CCOCC2)cc1` was tested, and the displacement was 0.8%.
Work on `Cc1c(OCc2ccccc2)ccc2c3c(c(=O)oc12)CCCC3` yielded a displacement of 1.9%.
`CCCOc1cccc(-c2nnc(N)s2)c1` gave a displacement of 3.5%.
`COc1ccc(C2=C(NCCc3ccc(S(N)(=O)=O)cc3)c3ccccc3C2=O)cc1` showed a displacement of 13%.
Compound `CCOC(=O)c1c(NC(=O)CC2Nc3cc(C)c(C)cc3NC2=O)sc2c1CCCC2` (stereo not given) has a displacement of 48.8%.
`Cc1cc2c(cc1C)NC(c1ccsc1)C1=C(CC(C)(C)CC1=O)N2` (stereo not given) was tested, and the displacement was 4.5%.
`C=CCOC(=O)C1=C(C)NC(C)=C(C(=O)OCC=C)C1/C=C/c1ccccc1` gave a displacement of 15.6%.
`O=C(O)CCn1c(O)c(C2=c3cc([N+](=O)[O-])ccc3=NC2=O)sc1=S` gave a displacement of 15.8%.
`N#C/C(=C\c1c[nH]c2ccccc12)C(=O)Nc1ccc(F)cc1` gave a displacement of 15.3%.
Compound `O=C1c2ccccc2C(=O)N1CCc1nc2ccccc2c(=O)n1-c1nccs1` has a displacement of 11.6%.
`O=C(Nc1ccc2oc(-c3ccccc3F)nc2c1)c1cccc([N+](=O)[O-])c1` showed a displacement of -3.1%.
For `COc1ccc(/C=C/C(=O)n2nnc3ccccc32)cc1`, the displacement was -5.7%.
Compound `Brc1ccc(OCCCCN2CCOCC2)cc1` has a displacement of 13.2%.
Work on `COC(=O)C12CC3CC(CC(C(=O)OC)(C1)C31SCCS1)C21SCCS1` yielded a displacement of -5.8%.
`COc1ccc(NC(=O)Cc2ccc(OC)c(OC)c2)c([N+](=O)[O-])c1` was tested, and the displacement was -72.8%.
`Cc1cccc(N2C(=O)/C(=C/c3ccc(-c4cccc(Cl)c4)o3)SC2=S)c1` was tested, and the displacement was 7.5%.
With `COc1ccc(N(CC(=O)NCc2ccccc2)S(C)(=O)=O)cc1` the displacement was 13.1%.
Compound `C=CCN1C(=O)/C(=C/c2cc([N+](=O)[O-])ccc2OC)SC1=S` has a displacement of -1.8%.
`CCOC(=O)c1c(NC(=O)c2c(-c3ccccc3)noc2C)sc2c1CCC(CC)C2` (stereo not given) gave a displacement of -4.2%.
Work on `COc1ccc(-c2nn(-c3ccccc3)cc2C=O)cc1[N+](=O)[O-]` yielded a displacement of -1.7%.
`O=S(=O)(c1ccccc1)N1CCN(Cc2ccccc2F)CC1` showed a displacement of 1.5%.
Work on `CC(=O)Nc1ccc(S(=O)(=O)/N=C2/NC(=O)CS2)cc1` yielded a displacement of -3.6%.
Compound `Cn1c(=O)c2cc(C#N)c(N)nc2n(C)c1=O` has a displacement of -4.4%.
Compound `CN(C)c1nccc(N(Cc2ccccc2)Cc2ccccc2)c1C#N` has a displacement of 2.9%.
`O=C(c1ccccc1F)N1CCN(Cc2ccc(F)cc2)CC1` was tested, and the displacement was -9.1%.
`COc1ccc(C(=O)N/N=C/c2ccncc2)cc1OC` gave a displacement of 0%.
Work on `O=C(NCc1cccnc1)c1ccc2ccccc2c1` yielded a displacement of 2.2%.
Compound `COC(=O)C1=C(C)N(c2cc(C)cc(C)c2)/C(=C\c2sccc2C)C1=O` has a displacement of 27%.
With `Cc1cc(C)nc(SCCCCSc2nc(C)cc(C)n2)n1` the displacement was 1.1%.
For `Cc1occc1-c1nc(-c2ccccc2)no1`, the displacement was 0.8%.
`O=C(Cn1nnc(-c2ccccc2)n1)Nc1cccc([N+](=O)[O-])c1` was tested, and the displacement was -5.4%.
`CCCSc1nc2sc3c(c2c(=O)n1-c1ccc(C)cc1)CCN(Cc1ccccc1)C3` gave a displacement of -4.4%.
Work on `COc1cc(C2C3=C(CC(C)(C)CC3=O)NC3=C2C(=O)CC(C)(C)C3)ccc1OCc1ccc(Cl)cc1` yielded a displacement of -8%.
In the case of `CC1=CCC(/C=N\Nc2nnc3c(n2)[nH]c2ccccc23)CC1` (stereo not given), the displacement is reported as 19.9%.
`CCOC(=O)C1(C)/C(=N\Nc2ccccc2OC)C(=O)C(=O)N1c1ccccc1` (stereo not given) was tested, and the displacement was -12%.
`COc1ccc(CCNC(=O)COc2ccc(Br)cc2)cc1OC` gave a displacement of -11%.
For `COc1cc(/C=N/NC(=O)C(=O)N2CCCC2)ccc1O`, the displacement was -4.6%.
`COc1cccc(NC(=O)c2ccc3ccccc3n2)c1` was tested, and the displacement was 8.4%.
With `CCc1ccccc1N(CC(=O)Nc1ccc2ccccc2c1)S(C)(=O)=O` the displacement was 1.7%.
With `Cc1occc1C(=O)N/N=C/c1ccc[nH]1` the displacement was -14.1%.
Work on `O=[N+]([O-])c1ccccc1S(=O)(=O)Nc1ccccc1` yielded a displacement of 10.4%.
Compound `CNC(=O)/C(=C/c1ccccc1)NC(=O)c1ccccc1` has a displacement of -1.7%.
Work on `Cc1cccc(OCC(=O)Nc2cccnc2)c1` yielded a displacement of 8.7%.
For `COc1ccc(C(=O)Nc2ccc(S(=O)(=O)NC(C)=O)cc2)cc1OC`, the displacement was 10.4%.
`CCc1nnc(NS(=O)(=O)c2ccc(NC(=S)NC(=O)/C=C/c3ccc(C(C)C)cc3)cc2)s1` showed a displacement of 15.4%.
Compound `NC(=O)c1ccc(NC(=O)c2ccc3ccccc3c2)cc1` has a displacement of -1.7%.
For `Cc1cc(C)c2cccc(NC(=S)NC(=O)c3cccc([N+](=O)[O-])c3)c2n1`, the displacement was 9.6%.
With `COc1cc(/C=N/NC(=O)COc2ccccc2[N+](=O)[O-])ccc1OCc1ccccc1` the displacement was 1.1%.
Compound `CCCOC(=O)c1c(-c2ccc(OC)c(OC)c2)csc1N` has a displacement of 7.1%.
`CC1(C)CC(=O)C(C=NCCN2CCN(C(=O)CC3CCCC3)CC2)=C(O)C1` showed a displacement of -13.3%.
Work on `COc1ccc2oc(=O)c(C(=O)NCCC3=CCCCC3)cc2c1` yielded a displacement of -8.9%.
Compound `Cc1cccc(NC(=O)c2ccc(-c3ccccc3)cc2)c1` has a displacement of 14.5%.
`O=C1NC(=S)N(c2ccc(F)cc2)C(=O)C1=Cc1ccc([N+](=O)[O-])s1` was tested, and the displacement was 28.4%.
Compound `Cc1ccc(N[C@@H]2C[C@H](O)[C@@H](CO)O2)cc1C` has a displacement of 1.2%.
`O=C(O)CSc1nnc(-c2cccs2)n1-c1ccccc1` gave a displacement of 8.6%.
Compound `Cc1cc(C(F)(F)F)c(C#N)c(SCC#N)n1` has a displacement of -10.2%.
`Cc1ccc(SC2CC(=O)N(c3ccccc3C(F)(F)F)C2=O)cc1` (stereo not given) gave a displacement of 1.6%.
Work on `CCc1nc2ccccc2n1CC(O)COC1CCCCC1` (stereo not given) yielded a displacement of -10.7%.
With `COC(=O)c1cc(NC(=O)c2ccc(-c3ccc([N+](=O)[O-])cc3)o2)cc(C(=O)OC)c1` the displacement was 26.6%.
With `COc1ccc(OCC(=O)N2c3ccc(C)cc3-c3c(ssc3=S)C2(C)C)cc1` the displacement was 7.5%.
`CC(C)(C)NCCCCOc1c(Cl)cccc1Cl` was tested, and the displacement was 5.8%.
`Nc1sc2c(c1C(=O)Nc1ccccc1)CCCC2` was tested, and the displacement was 1.9%.
With `O=S(=O)(c1ccc(Cl)cc1)N1CCN(C2CC3CCC2C3)CC1` (stereo not given) the displacement was 6.7%.
`O=C(c1ccc(Cl)cc1)N1CCN(c2ccc([N+](=O)[O-])cc2C(F)(F)F)CC1` showed a displacement of -1.2%.
Work on `N#C/C(=N/Nc1cccc(C(F)(F)F)c1)c1nc(-c2ccccc2)cs1` yielded a displacement of -4.4%.
In the case of `CC(=O)C1=C(O)C(=O)N(CC2CCCO2)C1c1cccc(F)c1` (stereo not given), the displacement is reported as -0.7%.
`O=C(/C=C\c1cccs1)c1cccc([N+](=O)[O-])c1` was tested, and the displacement was 11.5%.
Compound `Cc1cc(C=O)c(C)n1-c1ccc([N+](=O)[O-])cc1` has a displacement of 10.7%.
Compound `O=C(Nc1ccccc1C(=O)N1CCOCC1)c1cccc(F)c1` has a displacement of -6.1%.
`Cc1ccc(OCCOCCOc2ccc(Br)cc2/C=c2\sc3nc4ccccc4n3c2=O)cc1` showed a displacement of 4.5%.
In the case of `CCOC(=O)c1sc(NC(=O)c2cc(Cl)ccc2OC)nc1C`, the displacement is reported as -8.7%.
`CC(C)=CC1C(C(=O)Nc2ccc(Br)cn2)C1(C)C` (stereo not given) was tested, and the displacement was -9.3%.
In the case of `CN(C)/C(=N\S(=O)(=O)c1ccc(Br)cc1)c1ccccc1`, the displacement is reported as 96.8%.
With `Cc1nnc(SCC(=O)N2c3cc(C)c(C)cc3-c3c(ssc3=S)C2(C)C)s1` the displacement was -9.2%.
In the case of `COC(=O)/C(C#N)=C/c1c(OC)[nH]c2ccccc12`, the displacement is reported as 21.8%.
With `C=CCN1C(=O)/C(=C\c2c(OC)ccc3ccccc23)C(=O)NC1=S` the displacement was -8%.
With `CCOC(=O)/C(C#N)=C/c1ccc(OCc2c(C)no[n+]2[O-])cc1` the displacement was -1.9%.
Compound `N/C(=N\N=C\c1ccccc1Cl)c1nonc1N` has a displacement of -12.9%.
With `CCOc1ccccc1N(CC(=O)NCC1CCCO1)S(=O)(=O)c1ccccc1` (stereo not given) the displacement was 2.2%.
`O=C(Nc1ccccc1C(=O)Nc1ccc(Br)cc1)c1cccs1` showed a displacement of -1.4%.
`Cc1ccc(NC(=O)c2c(-c3ccccc3Cl)noc2C)c(C)c1` showed a displacement of 13.2%.
Compound `CC(=O)C1=C(O)C(=O)N(CCN2CCNCC2)C1c1ccccc1Cl` (stereo not given) has a displacement of -9.5%.
Work on `COc1cc(/C=C2\C(=O)N(c3cccc(Cl)c3)N=C2C)cc(Cl)c1O` yielded a displacement of -10.1%.
Work on `CCOC(=O)C(=CNc1ccc(Cl)cc1Cl)C(=O)OCC` yielded a displacement of -5.8%.
With `COc1cc(Br)c(C2CC(=O)Nc3ccc4ccccc4c32)cc1OC` (stereo not given) the displacement was -17.8%.
Compound `COC(=O)c1c(NC(=O)c2cccnc2)sc2c1C(C(=O)OC)CC2` (stereo not given) has a displacement of -2.2%.
Work on `Cc1ccccc1-c1nc(Cc2ccccc2Cl)no1` yielded a displacement of 9.5%.
Work on `COc1ccc(C2CC(c3ccc(C)cc3)=NN2C(C)=O)cc1OC` (stereo not given) yielded a displacement of 7.6%.
`CC(=O)N/N=C/c1c[nH]c2ccccc12` showed a displacement of -1.5%.
In the case of `C/C(=N/OCC(=O)Nc1oc(-c2ccccc2)c(-c2ccccc2)c1C#N)c1cccs1`, the displacement is reported as -8%.
`CN1CCN(c2nc3ccccc3nc2N2CCN(C)CC2)CC1` was tested, and the displacement was -10.7%.
